The source of these data is the supplement of paper PMC11417369.

± gives the standard deviation of the averaged measurements. The list shows a part of the results.

The test system of this assay is PfAP2-G AP2 domain (GST-tagged). In words: gcPBM binding intensity (ln(normalized median fluorescence intensity)); higher = stronger DNA binding. An outline of the steps: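 Binding of GST-tagged P. falciparum DNA-binding domains, expressed in E. coli and used at about 25 μg on average, was carried out for 1 h in 1× PBS containing 1% milk, 0.2 mg/ml BSA, 0.5% salmon testes DNA and 0.03% Triton X-100. The target was an Agilent 4 × 180k array of primer-extended double-stranded 36-bp intergenic genomic probes plus negative controls, read with Alexa488 anti-GST antibody at 488 nm. Binding intensity is the highest Masliner-normalised natural-log median intensity across replicate spots of either probe orientation.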
On to “AAAAAAAAAAGACACACACACACACTAATACATACA [CACACA_site6473]”, for which the “gcPBM binding intensity (ln)” value came to 10.15 ± 0.085.
For “ACACATATGCATATATGTACATAATATATTAAACTT [XGTACX_site5975]” the value was 11.2 ± 0.46; for “TAAAAAATAAATATATGTACGCAATAAATGTGTTAA [XGTACX_site4043]”, 11.6 ± 1.1; for “AAATAAAATATCAATTAAAACAGAATTGAATTTTTA [CACACA_negctrl_site181]”, 9.5 ± 0.33.
In the case of “ATATGTTCTACAAAAAAGATGTCGATTTATTTTCTT [CACACA_negctrl_site1179]” it was 9.98 ± 0.014; in that of “AAATATATATGTATATGTACTTATTTATTTAAAAGG [XGTACX_site4093]”, 11.4 ± 0.94.
Regarding “TTTATTATATATAAAAGTACACATTGTAAGGAAACA [XGTACX_site8560]”, the “gcPBM binding intensity (ln)” value stood at 11.5 ± 0.97.
For “AAAAGTGATGAGACAAGTACTAACATATTATTATTA [XGTACX_site1533]” the value was 10.8 ± 0.42; for “TTTTCTGTATAAACTTGTACATATATTTCCTTGTTT [XGTACX_site5745]”, 11 ± 0.66.
Consider ATACCTATTTGATGAGTGCATTATCCAATATATGTA, for which the “gcPBM binding intensity (ln)” value worked out at 10.2 ± 0.11.
For “ATGTTTTACAAAAACACACAAATGAATATAAACATA [CACACA_site6667]”, the “gcPBM binding intensity (ln)” value is 10.05 ± 0.092.
For “AAAAAAAAAAAAAAATGTACAAATAGTAGTTACAGA [XGTACX_site2531]”, the “gcPBM binding intensity (ln)” value stood at 10.9 ± 0.49.
Regarding “AACATGTTAAAATAAACACACAGCTAAGGTTTTTTT [CACACA_site157]”, the “gcPBM binding intensity (ln)” value came to 9.62 ± 0.25.
With “TATTTGTAAATCGATACACACATATATATTAATATA [CACACA_site196]”, the “gcPBM binding intensity (ln)” value came to 9.94 ± 0.085.
For the sequence “AAATGTAGATATTATCGTACACATATATTTATATAT [XGTACX_site6326]”, the “gcPBM binding intensity (ln)” value was 11.1 ± 0.74.
“ATAATATATGTATATCCACACACATATATATATATA [CACACA_site8471]”: the “gcPBM binding intensity (ln)” value turned out to be 10.2 ± 0.34.
For the sequence “ATTTAAGATTTAATCACACACATATATATTATATAC [CACACA_site2907]”, the “gcPBM binding intensity (ln)” value is 9.855 ± 0.064.
In the case of “GCAAATGTGAAAACGTGTACACATTTTATTTAATTT [XGTACX_site8000]”, the “gcPBM binding intensity (ln)” value came out at 11.7 ± 1.
For the sequence “TTGTTTATTTTTTATTACTATAAAGATGTTATATAT [CACACA_negctrl_site1506]”, the “gcPBM binding intensity (ln)” value is 10 ± 0.2.
On to “TATATAAATATATATGTACACACATATACATGTTGA [CACACA_site9022]”, for which the “gcPBM binding intensity (ln)” value was found to be 11.3 ± 0.92.
For the sequence ATAATATCTTTATGTGTGCACATATATATATATATA, the “gcPBM binding intensity (ln)” value came to 10.4 ± 0.42.
With “TTTTTTTTTTTTTTTGCACACTTGATTTGAGCTTAT [CACACA_site4042]”, the “gcPBM binding intensity (ln)” value came out at 9.87 ± 0.41.
For “AAAATAAAAATACACATTTTTTTTTTTTTTTTTTTT [TGCATGCA_negctrl_site515]”, the “gcPBM binding intensity (ln)” value stood at 10.6 ± 0.18.
Turning to “TTTTTTTTTGTTTACACACCCAAATCACATACATAT [CACACA_site4052]”, the “gcPBM binding intensity (ln)” value worked out at 10.4 ± 0.37.
As to “ATGATTTTTTCTGTATGTACATAAAAATAAAATTCT [XGTACX_site5698]”, the “gcPBM binding intensity (ln)” value came to 11.3 ± 0.8.
Take “CATTAGGTCTTTTGTACATGCAAGTGTGTGCGTAAA [TGCATGCA_site255]”: the “gcPBM binding intensity (ln)” value is 11.1 ± 0.64.
In the case of “TAAATAATTTATAAGTGTACTATTATTGCACGAATA [XGTACX_site7715]” it was 11.3 ± 1.1; in that of “AAAAAAAACAGACACACACACATAAATATATATAAA [CACACA_site148]”, 10.03 ± 0.085.
With “TATTAAGAAGAAAATTCACACATTTGTACCTCTCTT [CACACA_site4822]”, the “gcPBM binding intensity (ln)” value came to 11 ± 0.76.
“CAGCTCTTAAAAATTACACACATATACGCATATATA [CACACA_site3267]”: the “gcPBM binding intensity (ln)” value stood at 10 ± 0.15.
In the case of “TTTTCCTTTTTGGAATGTACACATATATATTAAATG [XGTACX_site4700]” it was 11.4 ± 0.93; in that of “AAATATAATATATGCACACATACATACATATATATA [CACACA_site104]”, 10.1 ± 0.17; in that of “AAGAATAATAACAAATGTACTTATATAAAGTATTAT [XGTACX_site2336]”, 11.2 ± 0.86.
On to “TAATTAAATATTTTCCTACAATTAATAAGAAAAGGA [XGTACX_negctrl_site565]”, for which the “gcPBM binding intensity (ln)” value worked out at 9.86 ± 0.15.
Regarding “TTACAAAAATGTGGTTGTACACAAACAAAAAAAATA [XGTACX_site8506]”, the “gcPBM binding intensity (ln)” value was 11.5 ± 0.96.
“GAAAATAGCTAAAATACACACAATTAAAAGTTATTA [CACACA_site7614]”: the “gcPBM binding intensity (ln)” value amounted to 9.72 ± 0.11.
As to “TATAAATAGATATATACACACATGAAAATAAATAAA [CACACA_site7228]”, the “gcPBM binding intensity (ln)” value was found to be 10 ± 0.13.
Take “TATAATATAATATATGCACACAAATATGTATATATG [CACACA_site8664]”: the “gcPBM binding intensity (ln)” value was 10.1 ± 0.26.
On to AACTATATATAACTAGTGCAAAGACAATATTTTAAA, for which the “gcPBM binding intensity (ln)” value is 10.025 ± 0.007.
With “AAAATTTAATATAATGCACACATAAAAAAAAAAAAT [CACACA_site8425]”, the “gcPBM binding intensity (ln)” value was found to be 10.1 ± 0.25.
Consider “TTCTTTAAAATAAATTGTACTAACATATATATATAT [XGTACX_site6045]”, for which the “gcPBM binding intensity (ln)” value worked out at 11.1 ± 0.74.
As for TACAGTTCAATGAAGGTGCAATTAATATATAAAATA, the “gcPBM binding intensity (ln)” value came to 10.1 ± 0.16.
Turning to “ATAATATAATACGAAGGTACACATTTTCTTAATATA [XGTACX_site7947]”, the “gcPBM binding intensity (ln)” value turned out to be 11 ± 0.64.
As to “TTATGTACAATTTCTTCTTTCTTTTTTCCTAAAGAC [CACACA_negctrl_site1193]”, the “gcPBM binding intensity (ln)” value is 11.1 ± 0.57.
As for “TTTTTTTTTTTTTTTTGTACACATAATATGAATAAT [XGTACX_site2661]”, the “gcPBM binding intensity (ln)” value came out at 11.3 ± 1.1.
On to “ATAACATATATATATACACACACATATATATATGAA [CACACA_site7983]”, for which the “gcPBM binding intensity (ln)” value is 9.8 ± 0.014.
Take “CGTATAAATATACGTGCATGTAACTTTTTCTATATT [TGCATGCA_site981]”: the “gcPBM binding intensity (ln)” value amounted to 10.3 ± 0.23.
“CTATTTATTTTTGATGCATGCCAAATATAGAAAAAA [TGCATGCA_site368]”: the “gcPBM binding intensity (ln)” value came to 10.1 ± 0.11.
Regarding “TAGTAGTTATCACTAACATGCAATAATATTATTTAA [TGCATGCA_site161]”, the “gcPBM binding intensity (ln)” value is 9.66 ± 0.2.
For “TGACTGTAGATATTTTGTACATAACCTAATATATAT [XGTACX_site970]”, the “gcPBM binding intensity (ln)” value came out at 10.7 ± 0.43.
For the sequence “ATATATTTTTTGAATACACACATATTATAGGTAATA [CACACA_site6709]”, the “gcPBM binding intensity (ln)” value is 10.2 ± 0.29.
Regarding “TTTTTTTTTCTTTTCAAACACACAATTGGTATATAT [CACACA_site3321]”, the “gcPBM binding intensity (ln)” value was found to be 10.1 ± 0.24.
For “AAAAAAAAAAAAAACACACACATGCACATCATATTA [CACACA_site4467]” the value was 10.12 ± 0.099; for “TATGTGTAATATTTTTGTACAGAAAAAAAAAAAAAA [XGTACX_site7075]”, 10.8 ± 0.77; for “TCATTTCACAGACACACACACACAATATATTTCCTT [CACACA_site9295]”, 10.3 ± 0.17.
For the sequence “ATATTTTTATTAGTAGTGCAATTTAGTGTATATATA [GTGCAC_site9542]”, the “gcPBM binding intensity (ln)” value turned out to be 10.3 ± 0.38.
In the case of “AAAAAAAAAATTAAAACATGCATAAATAAATATATT [TGCATGCA_site866]” it was 9.41 ± 0.37.
